# PubChem BioAssay AID463173 (ICCB-Longwood Screening Facility, Harvard Medical School, 2010)
# Among all 52,000 compounds or so, about 4,300 (8.3%) were called active. Cut-off read from the data, not from the text of the source: active = survival mostly below about 52% (no sharp cut-off); inactive = mostly above about 56%. This is one part of the list.
# Test system: DeltatarO mutant
# Assay: growth inhibition of S. aureus wild type versus tarO mutant, primary screen, teichoic acid synthesis inhibitors, RN4220, OD600 (AID 463173)
# Conditions: OD600, 18 h, hits give low values, screened at 18.75 µg/mL (by protocol)
row,SMILES,survival
1,O=C(Nc1sc2c(c1C(=O)NCc1cccnc1)CCCC2)c1cc(=O)c2ccccc2o1,inactive: 63%
2,Cc1ccc2nc(COc3ccccc3NC(=O)C(C)(C)C)cc(=O)n2c1,inactive: 102%
3,CCOc1ccc(C2CC(c3c(O)n(C4CCCCC4)c(=O)[nH]c3=O)=Nc3ccccc3S2)cc1 (configuration not stated),inactive: 47%
4,O=C(Cc1ccc(F)cc1)NCc1ccc2c(c1)CCN2C(=O)c1ccc(F)cc1,inactive: 74%
5,O=C(CSc1nnc2ccc3ccccc3n12)Nc1ccccc1Cl,inactive: 76%
6,Cc1ccc(NS(=O)(=O)c2ccc(-n3cccn3)cc2)cc1Cl,inactive: 84%
7,CCOC(=O)N1CCc2c(sc3c2c(=O)n(-c2ccccc2C(F)(F)F)c(=O)n3Cc2ccccc2C)C1,inactive: 104%
8,CN1C(=O)/C(=C/C=C2/Sc3ccccc3N2CCO)SC1=S,inactive: 108%
9,CCC(=O)N1CCc2cc(S(=O)(=O)NC(CC(C)C)C(=O)NCCc3ccccc3)ccc21 (configuration not stated),inactive: 121%
10,COc1ccc(CCNC(=O)C(=O)NCC(c2ccco2)S(=O)(=O)c2cccs2)cc1OC (configuration not stated),inactive: 89%
11,CCOC(=O)c1c(-c2ccccc2)oc2ccc(N(C(C)=O)S(=O)(=O)c3ccc(CC)cc3)cc12,inactive: 69%
12,O=C(c1nc(-c2ccc(Cl)cc2)n2c1CCCCC2)N1CCN(c2ccccc2)CC1,inactive: 88%
13,O=C(COc1ccccc1-c1nc(-c2ccccc2)no1)Nc1cccc([N+](=O)[O-])c1,active: 34%
14,Cc1cccc(-c2nc(CCNC(=O)Cc3ccccc3)cs2)c1,active: 17%
15,COc1ccc(CCNC(=O)c2ccc3c(c2)N(Cc2ccc(F)cc2)C(=O)CS3)cc1OC,inactive: 117%
16,CCN(CC)S(=O)(=O)c1ccc(-c2nnc(SCC(=O)O)n2CC)cc1,inactive: 77%
17,O=C(COc1ccc(Cl)cc1)Nc1ccc2nc(SCC(=O)N3CCCC3)sc2c1,inactive: 67%
18,COc1ccc(OC)c(NC(=O)CSc2ccc(-c3sc(C)nc3C)nn2)c1,inactive: 83%
19,Cc1nn(C(=O)c2cccc(Cl)c2)c(C)c1S(=O)(=O)N1CCOCC1,inactive: 82%

row,SMILES,survival
1,CCn1c(=O)cc(SCC(=O)NCc2ccc(OC)cc2OC)c2ccccc21,inactive: 66%
2,CCc1ccc(-n2nc(CO)c(C(=O)NCCCc3ccccc3)n2)cc1,inactive: 95%
3,Cc1ccc(C)c(S(=O)(=O)c2nnn3c2nc(NC2CCCCC2)c2sccc23)c1,inactive: 40%
4,Cc1ccccc1Cn1c2ccccc2c2cnn(CC(=O)NCc3ccccn3)c(=O)c21,inactive: 66%
5,CCSc1ccccc1C(=O)Nc1ccc(-c2nc3ccccc3s2)c(O)c1,inactive: 83%
6,Cc1ccc(C)c(N2CCN(C(=O)NCc3noc4ccc(C)cc34)CC2)c1,inactive: 64%
7,Cc1ccccc1OCC(=O)Nc1cccc(C(=O)OCc2cc(=O)n3c(C)csc3n2)c1,inactive: 88%
8,COCc1c(CSSCc2cnc(C)c(O)c2COC)cnc(C)c1O,inactive: 64%
9,CCOc1ccc(-c2c(C)nn3c(C)c(C(=O)NCCc4ccc(Cl)cc4)cnc23)cc1OCC,inactive: 72%
10,COC(=O)c1ccccc1NC(=O)c1cc2cc(C)ccc2n1C,inactive: 99%
11,O=C(CC1COc2ccccc2O1)NCCc1ccccc1 (configuration not stated),inactive: 87%
12,O=C(Cn1c(=O)n(-c2ccc(Cl)cc2)c(=O)c2sc3ccccc3c21)NC1CCCC1,inactive: 90%
13,Cc1ccc(S(=O)(=O)Cc2ccc(C(=O)N3CCN(c4cccc(Cl)c4)CC3)o2)cc1,inactive: 75%
14,CCC1=Nc2cc(C(=O)NCCN(CC)CC)ccc2Sc2ccccc21,inactive: 120%
15,c1ccc(CN2CCN(c3ncnc4c3cnn4-c3ccccc3)CC2)cc1,inactive: 69%
16,CCc1nc2cccnc2n1-c1ccc(CC(=O)Nc2cccc(C)c2C)cc1,inactive: 81%
17,CCc1cccc(NC(=O)C2CCC(CNS(=O)(=O)c3ccc(Br)s3)CC2)c1 (configuration not stated),inactive: 79%
18,Cc1c(-n2c(O)c(C3=c4ccccc4=NC3=O)sc2=O)c(=O)n(-c2ccccc2)n1C,inactive: 75%
19,Cc1ccc(NC(=O)c2cc(S(=O)(=O)N3CCc4ccccc43)cn2C)c(Cl)c1,inactive: 106%

row,SMILES,survival
1,CCN(CC)CCCn1c(N)c(-c2nc3ccccc3[nH]2)c2nc(C#N)c(C#N)nc21,inactive: 85%
2,Cc1cccc(-n2ncc3c(Nc4ccc(C)c(Cl)c4)ncnc32)c1,inactive: 124%
3,COc1ccc(NC(=O)c2c(-c3ccccc3)c(-c3ccccc3)nn(C)c2=O)cc1OC,inactive: 53%
4,Cc1ccccc1CNC(=O)CN1C(=O)C2CCCCN2c2ccc(C(=O)N3CCCC3)cc21 (configuration not stated),inactive: 76%
5,CCc1nn(CC(=O)N2CCCCC2)c(=O)c2cc3sc(C)cc3n12,inactive: 101%
6,Cc1ccc(C)c(Cn2c(=O)n(C(C)C)c(=O)c3oc4ccccc4c32)c1,active: 51%
7,COc1cccc(-n2c(CNC(=O)OC(C)(C)C)n[nH]c2=S)c1,inactive: 82%
8,O=C(Nc1ccc2c(c1)N(C1CCCC1)C(=O)c1ccccc1S2)c1ccccc1F,inactive: 77%
9,CCOC(=O)c1cccc(NC(=O)C2Cc3ccccc3N2C(=O)c2ccccc2)c1 (configuration not stated),inactive: 81%
10,CCOc1ccc(C(=O)NC2CC(=O)N(c3ccc(C)cc3)C2)cc1OCC (configuration not stated),inactive: 101%
11,Cc1ccc(Nc2nc3ccccc3c3nncn23)c(Cl)c1,inactive: 125%
12,Cc1ccc(-c2nc(NC(=O)CSc3nc(C)nc4sc5c(c34)CCCC5)ns2)cc1,inactive: 53%
13,CC1CCN(S(=O)(=O)c2ccc3c(ccn3CCC(=O)NCc3ccccc3F)c2)CC1,active: -5%
14,O=C1CCCC/C1=N\Nc1ccc(CN2CCCCC2)cc1,inactive: 97%
15,CCOc1ccc(NC(=O)c2cc(OC)nc3ccccc23)cc1,inactive: 96%
16,CCOc1ccc(NC(=O)c2ccc3c(c2)CCN3S(=O)(=O)CC)cc1,inactive: 48%
17,O=C(Nc1cccc(C(=O)N2CCOCC2)c1)NC1CCCCC1,inactive: 84%
18,O=C(CC1C(=O)N(c2ccccc2)C(=O)N1Cc1ccc(F)cc1)Nc1cccc(F)c1 (configuration not stated),inactive: 68%
19,CCOC(=O)Nc1ccc(C(=O)OC)cc1,inactive: 75%
